According to the supplement of paper PMC11417369:
± gives the standard deviation of the averaged measurements. The list shows a part of the results.

These sequences were tested on PfAP2-I AP2 domain 3 (GST-tagged) (assay: gcPBM binding intensity (ln(normalized median fluorescence intensity)); higher = stronger DNA binding).
Procedure, shortened: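 In this array assay, P. falciparum DNA-binding domains with a GST tag, expressed in E. coli, were applied for 1 h to primer-extended double-stranded 36-bp intergenic genomic probes and negative controls on an Agilent 4 × 180k array. Bound protein was visualised with Alexa488 anti-GST antibody at 488 nm. Binding intensity is the highest Masliner-normalised natural-log median intensity across replicate spots of either probe orientation.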

Point of comparison: “TATAAAGAAATCATTACACACAAATAAATACATACA [CACACA_site2675]”, “gcPBM binding intensity (ln)” value 7.9 ± 0.27. Against it:
- AGTTAATTAATAGGCACACATATATATGTATAAATA [CACACA_site523] — within error, 8.19 ± 0.35
- AGAATAAGAATTATTAGTACTTATAAATATTATATT [XGTACX_site7228] — within error, 7.46 ± 0.3
- GTAAATACACATATGTGTACATATATATATATATAT [XGTACX_site3696] — higher, 9.36 ± 0.64
- TAATTTAAAATATATAGTACACACGTGAACACAAAT [XGTACX_site792] — within error, 8.22 ± 0.33
- CTATTACATTAAATGTGTACATATATATATATATAT [XGTACX_site5233] — higher, 9.25 ± 0.38
- GTGGCTACTATATATTGTACGATATTATATATATAC [XGTACX_site8376] — within error, 7.73 ± 0.52
- GGTTCATTAAAGTGTACACATAAATACCGTAACATT [CACACA_site6002] — within error, 7.92 ± 0.64
- CTAAGGTATGATTAATCACACACATAAATATATATA [CACACA_site8847] — within error, 8.02 ± 0.73
- CACAAGAAAATTCACACACACACATATATATATATA [CACACA_site3880] — higher, 9.26 ± 0.31
- TCCTTAATTCAAAAAATAATATCTTATATTTCAAAT [CACACA_negctrl_site1592] — within error, 7.34 ± 0.44
- GGAATAAAGACAGCACGTACATATCTTACGAAGCTC [XGTACX_site3918] — within error, 8 ± 0.4
- ATATTAATTTCTCATGCATGTTCTTCCCAATTGTAA [TGCATGCA_site425] — within error, 7.99 ± 0.81
- GGTTAGACGAAATATACATGCAATGGAAAATAAGTT [TGCATGCA_site23] — within error, 8.4 ± 0.61
- TCATCATGTATGTACACACATACATATATTATGTAC [CACACA_site1386] — within error, 7.83 ± 0.43
- TATAAGTAGATAAGGGTGCACAATATAAATATATAG — higher, 11.55 ± 0.021
- CTTTTTGAAATATTAACACACATTTTGTTAATGAAT [CACACA_site6087] — within error, 7.65 ± 0.58
- ATATATATACATATAACACACACATATATATATATA [CACACA_site8827] — higher, 9.32 ± 0.61
- TTGTATTTATTTATGGGAGGATTATAATCATTGTAG [GTGCAC_negctrl_site268] — within error, 7.79 ± 0.42
- TAATTCACATTTTATACACACATTCGAACCTTTTTT [CACACA_site3341] — within error, 7.79 ± 0.7
- ATTTTTATTAGTTATTGTACTTATTATTTATTAATT [XGTACX_site2568] — within error, 7.89 ± 0.4
- TATAGATATATACGGTGTACATACATAAAAAAAAAA [XGTACX_site1648] — within error, 8.02 ± 0.47
- TATAGTCAACTAGTCACACATATAATTATATATATA [CACACA_site5872] — within error, 8.4 ± 0.49
- TATTTTTTTTGTCATATATAAGAAACGCTCTTCTTT [TGCATGCA_negctrl_site127] — within error, 7.5 ± 0.79
- ATATTTATATTTTCATGTACGTATTTTTATATATAT [XGTACX_site8478] — within error, 8.18 ± 0.49
- TGAAATAAAATTTGTACACACATATTTATTTATATA [CACACA_site6421] — within error, 7.62 ± 0.27
- TGCATTATATTAAATTTTTTATTTGTTGATGTTATA [GTGCAC_negctrl_site371] — within error, 7.75 ± 0.33
- AAATAAAAGATATTTTTACACACTTTTGATGAGATC [CACACA_site9000] — within error, 7.62 ± 0.6
- TAAAGTACAGGAGTAAATTGAAAAAAAAAAAAAAAA [CACACA_negctrl_site1410] — within error, 8.03 ± 0.45
- ATAAATAAATAAATACGTACATATATATATATATAT [XGTACX_site8838] — higher, 9.19 ± 0.38
- TATAATATTCCTTTTTAACACACATATGAACAAATA [CACACA_site7932] — within error, 7.87 ± 0.44
- ATACATATATTTTTATGTACATATATTTTTTTTGTA [XGTACX_site4546] — within error, 7.7 ± 0.37
- TTGATATCTTTTTTTTGTACATATATTTATAAGTAA [XGTACX_site3538] — within error, 7.71 ± 0.46
- TTTTTTTAAATTATATGTACATAATTTTAATTTTAT [XGTACX_site5086] — within error, 7.74 ± 0.36
- TTTTAGAGTGATATATATTAACTTTTAATAAAAAAA [CACACA_negctrl_site611] — within error, 7.63 ± 0.3
- AAAATATAAGCCACTACACACATATATAAATGTATA [CACACA_site2639] — higher, 8.54 ± 0.29
- GTTATACACATATATACACACATATGTAGATATATA [CACACA_site7529] — within error, 7.96 ± 0.3
- TTGTACATCTTTTGCACACGTAATGTTATTAAAATA [CACACA_site4827] — higher, 9.38 ± 0.071
- TGTATATTTGTTGTTACACACATATATTTTTTTTTT [CACACA_site128] — within error, 7.65 ± 0.47
- TTATAACAAAAAATTAAAGAAAGAGAATAAGTGAAA [CACACA_negctrl_site975] — within error, 8 ± 0.59
- AGGTCCTACACCAATAAATATCATATATATATTATA [CACACA_negctrl_site568] — within error, 7.51 ± 0.55
- TTAACTATAATAAAATGTACATATGTAACATATATA [XGTACX_site7790] — within error, 7.58 ± 0.44
- ATGATTTTTTTTATTTTTTAGCTAGAGCTAGCTTAT [CACACA_negctrl_site433] — within error, 7.6 ± 0.68
- TATGGAAGAAAATATACACACAAAAAAAAAAAATGG [CACACA_site4924] — within error, 8.22 ± 0.46
- AACACTCAAAAAAATTTAAATAAAAAAAAAAAAAAA [CACACA_negctrl_site680] — within error, 7.94 ± 0.83
- TATGAATGCTTTTATGCACACGTACAAAAATATTAT [CACACA_site8851] — higher, 9.74 ± 0.5
- ATATGTTAAAAATTCACACAAAAAAGTATACAGATA [CACACA_site4179] — within error, 7.66 ± 0.47
- TTACCTATTCTAAAATGTACACATTATATATGTGCT [XGTACX_site5776] — within error, 7.82 ± 0.45
- ACATGTTTCATATGTTGTACTAACTTAAATATAAAT [XGTACX_site6412] — within error, 7.8 ± 0.52
- CCAACATATATTATCACACACATATATATATATATA [CACACA_site2016] — higher, 9.46 ± 0.68
- ATATTAGATTAATTTACACACAGAAAATGAGATTTT [CACACA_site541] — within error, 7.59 ± 0.45
- AATAAACAAATATGTACACACATATACCTATAAATA [CACACA_site7358] — within error, 7.82 ± 0.43
- TAGAGTATATATAAATGTACATATTTTATGCTAATT [XGTACX_site7821] — within error, 7.7 ± 0.44
- AAAAAATTAAATAATTACAAAAAAATAAAATAAAAA [GTGCAC_negctrl_site638] — within error, 7.5 ± 0.59
- AAAAATAATGCACATATATATAATATGTATATGTAT [CACACA_negctrl_site443] — higher, 11 ± 0.6
- ATGTTTACATATTAGGGTACATAATAAATTGCATAT [XGTACX_site6712] — within error, 7.99 ± 0.47
- TTTTAAACAAGACACACACACATATATATATATATA [CACACA_site925] — higher, 9.47 ± 0.54
- TTATTGTAAATATATGCATGTGCAAAATGAAAAAAA [TGCATGCA_site399] — higher, 9.8 ± 0.11
- GAATGTATAAAATGAACACACGCCAAATTAAATGAA [CACACA_site3044] — within error, 7.58 ± 0.61
- CATGTATTTTATATTACACACTAATATTATATATAT [CACACA_site1508] — within error, 8.09 ± 0.57
- ATAAAATAAAAAAGTAGTACACACTTCACGATATTT [XGTACX_site8289] — within error, 8 ± 0.16
- ATAATTATAAAATAAACACACATATATATTTATATG [CACACA_site440] — within error, 7.42 ± 0.47
- ATTATGTTATATATATGTACATATATAATGTTCATA [XGTACX_site6184] — within error, 7.72 ± 0.29
- AATAAATAAACAAATTAACACACAGAATTTTTTTTT [CACACA_site8485] — within error, 7.46 ± 0.6
- ATAATGATTATAATATGTACATAAATATATATATTA [XGTACX_site5029] — within error, 7.7 ± 0.35
- AAACAATACATATATTGTACATATATTATATTATAT [XGTACX_site8136] — within error, 7.66 ± 0.3
- AAAAAATCAAAACACACACACACACCCAAAAAAAAA [CACACA_site1444] — within error, 8.42 ± 0.27
- CGGATCTATAAGTGTACACAATCTAGCGAAAAGTTT [CACACA_site4932] — within error, 7.89 ± 0.6
- AATTTGAAATAAAGTAGTACAGTATATAAAAATATA [XGTACX_site128] — within error, 7.79 ± 0.42
- TTAGAAATTCATTTTACACACAATTCAAAAGAATGT [CACACA_site2104] — within error, 7.45 ± 0.39
- AAAAAGAATAAATAAATAAATAAATATATATATATA [GTGCAC_negctrl_site584] — higher, 9.29 ± 0.74
- TTTATTACTATGTAAACACACATGCAATATATGTTA [CACACA_site1114] — within error, 7.88 ± 0.59
- AAAAAGAAAAAAAAATGTACATAAAGTCTAATGATA [XGTACX_site4781] — within error, 8.04 ± 0.61
- ATATTATATAAATACACACACACATGCATGCACATA [CACACA_site4236] — higher, 9.31 ± 0.31
- AAAACAAATAAGTAAACACACATATAAAATCTATAT [CACACA_site7262] — within error, 7.6 ± 0.64
- CCTATTTATTTATACACACACATATATAAATAAATA [CACACA_site7417] — within error, 8.3 ± 0.32
- TTATGTAAATGCTTATGTACTTATTACAATATTTTT [XGTACX_site4057] — within error, 7.54 ± 0.54
- TAAGAATTGAAAAAATGTACACAATATAAAATTGAA [XGTACX_site698] — within error, 7.62 ± 0.45
- CAAATACAGAAACACACACACATATACATATATATA [CACACA_site3498] — within error, 8.15 ± 0.73
- AAAATCTAGGTATTTATACACACTAAAATAATATAC [CACACA_site623] — within error, 7.75 ± 0.61
- ATGTTATTAAAAAAGGGTACACATCTTTTATGTTAA [XGTACX_site812] — within error, 7.96 ± 0.19
- AATATGTAATAGTGTACACATATATCTGTATTTATG [CACACA_site4252] — within error, 7.89 ± 0.55
- TTTAAATATAATTGGAGTACTTATAATATATATATA [XGTACX_site7247] — higher, 8.97 ± 0.12
- ATTACACATATAGTAGTGCAATAACTCCAAAAAAAA — higher, 11.4 ± 0.6
- TATATATATATATGGGGTACAAATGGTCAGTATTAT [XGTACX_site1223] — higher, 9.52 ± 0.44
- AAAAAGGGTATTATTACACACACGTAAATATTAAGA [CACACA_site4233] — within error, 7.73 ± 0.65
- GAAAATATAAAAAAAAGTACATTTTCTCTAAATATA [XGTACX_site2441] — within error, 7.57 ± 0.35
- CTATATAATATGAGCACACATAAGATTTGGTGTTAT [CACACA_site744] — within error, 8.02 ± 0.32
